# Reference: PubChem BioAssay AID1345082 (National Center for Advancing Translational Sciences (NCATS), 2018)
# Values joined by “and” are separate entries in the source; they are usually repeats but may differ in a detail not shown here. Identical values can stand only once. The whole screen tested about 94,000 compounds, of which about 4,000 (4.3%) were called active. Inconclusive results, whose numbers are uncertain, are shown with a selection of clear calls. Calls follow the shape of the dose curve; as a rule, active = well fitted inhibition curve with a large enough effect; inconclusive = small, poorly fitted or top-dose-only effect; inactive = no such curve, though single readings can be large or run the other way. Where the call is inconclusive, the potency comes from a doubtful curve fit.
# Experiment: Cytotoxic Profiling in NIH 3T3 Cell Line of Diverse Libraries Using Quantitative High-Throughput Screening; also: nearly all actives have a fitted effect of over 55% in size
# Conditions: NIH 3T3 viability, CellTiter-Glo ATP luminescence, 48-72 h; activity change, negative = cytotoxicity: at 96.7 µM (top of the series) unless noted; series mostly up to 96.7 µM
# Outline: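 NIH 3T3 cells at 400 cells/well received 23 nL of compound by pintool and were incubated 48 or 72 h at 37 °C. Viability was read as ATP-coupled CellTiter-Glo luminescence.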
# % is scaled to controls: 0 for no effect and ±100 for the full control effect; potency is read from the fitted curve at half-maximal effect; tags tell the direction and shape of the fitted curve.
Compound,Potency,"activity change, negative = cytotoxicity"
CC(C)NC(=O)c1cc(-c2cccc(C(F)(F)F)c2)c2nncn2n1,inactive,
O=C1NCc2ccccc2CC12CCN(Cc1ccc(CO)o1)CC2,inactive,
CCc1nc2nccc(-c3cc(OC)c(OC)c(OC)c3)n2n1,"inconclusive: 50.1 µM [inhibitor, partial curve, poor fit]",
C=CCN(C)C(=O)[C@@H]1Cc2cn(Cc3cc(C)on3)c3cccc(c23)[C@H](CC(C)C)N1,active: 70.8 µM,
Cc1cc(CNC(=O)c2cc(-c3ccnn3C)cc3c2OCCN3C)no1,"inconclusive: 112 µM [inhibitor, partial curve, poor fit]",
O=C(c1ccc2cc[nH]c2c1)N1CCCC(Cc2noc(-c3ccccc3)n2)C1 (centres undefined),active: 20 µM,
CCOC(=O)[C@@H]1[C@@H](O)C(=O)N(Cc2ccccc2)C12CCN(C(=O)N(C)C)CC2,"inconclusive: 39.8 µM [inhibitor, partial curve]",
O=C(NCCN[S+](=O)([O-])c1cccs1)c1ccc(-c2cccc(C(F)(F)F)c2)cc1,"inconclusive: 44.7 µM [inhibitor, partial curve, poor fit]",
C[S+](=O)([O-])c1ccc(-c2nc(C(=O)NCCc3ccc(Cl)cc3)n3ccccc23)cc1,inactive,
O=C(c1ccccc1Cl)N1CCC(C(=O)N2CCCC(c3nc4ncccc4[nH]3)C2)CC1 (centres undefined),inactive,
CCCn1cc(C2CCN(S(=O)(=O)c3c(C)cc(C)cc3C)CC2)c2ccccc21,"inconclusive: 35.5 µM [inhibitor, full curve]",
O=C(NCC1CCCCCC1)C1CCCN(Cc2cccc(-c3ccc(F)cc3F)c2)C1 (centres undefined),"inconclusive: 39.8 µM [inhibitor, partial curve, poor fit]",
Fc1ccc(CN2CCC3(CC2)CC(c2cccnc2)=NO3)cc1,"inactive and inconclusive: 56.2 µM [inhibitor, partial curve, poor fit]",
CN1CCOc2c(C(=O)NCC[S+](C)(=O)[O-])cc(-c3ccccc3)cc21,"inconclusive: 100 µM [inhibitor, single point]",
O=C(CN1C(=O)C(c2ccccc2)=NC12CCCC2)NC1CCCCC1,"inconclusive: 35.5 µM [inhibitor, partial curve, poor fit]",
CC[C@H]1CN(S(=O)(=O)c2c(C)noc2C)CC[C@H]1CC(=O)N(C)CC#N,"inconclusive: 100 µM [inhibitor, partial curve, poor fit]",
O=C(NCc1ccccc1)N1CCC(N2C(=O)C3(CCCC3)C2c2ccccc2)CC1 (centres undefined),"inconclusive: 31.6 µM [inhibitor, partial curve, poor fit]",
O=[S+]([O-])(NC1CCN(c2nccc(Nc3ccccc3F)n2)CC1)c1ccccc1,"inconclusive: 50.1 µM [inhibitor, partial curve, poor fit]",
CC1(C(=O)NCc2cnccn2)CCc2cnc(NCc3ccccc3)nc21 (centres undefined),active: 50.1 µM,
C[S+](=O)([O-])CCn1ncc2cc(OCc3cccc(-c4ccccc4F)c3)ccc21,"inconclusive: 56.2 µM [inhibitor, partial curve, poor fit]",

Compound,Potency,"activity change, negative = cytotoxicity"
CC(C)(C)OCC1CN(Cc2cccs2)[S+](=O)([O-])c2cccnc2O1 (centres undefined),"inconclusive: 25.1 µM [inhibitor, partial curve, poor fit]",
CCC(O)c1cc2n(n1)CCN(C(=O)CCc1cn3ccccc3n1)C2 (centres undefined),inactive,
Cc1c[nH]c(C(=O)N2CCCC(CCc3cccc(C(F)(F)F)c3)C2)c1 (centres undefined),"inconclusive: 50.1 µM [inhibitor, partial curve, poor fit]",
CC(=O)Nc1ccc(CN2CCC3(CC2)CC(c2cccnc2)=NO3)cc1,inactive,
COC(=O)CNC(=O)c1ccc2oc(-c3ccncc3)nc2c1,inactive,
COc1ncccc1-c1nc(-c2c(C)noc2C)cc2c1cc(C)n2CCN(C)C,active: 10 µM,
COC(=O)[C@H](Cc1ccc(OC)cc1)NC(=O)[C@H]1CN(C(=O)c2ccc(N(C)C)cc2)CCN1C(=O)c1cccs1,"inconclusive: 56.2 µM [inhibitor, partial curve, poor fit]",
CS(=O)(=O)N1CCCN(c2cc(C3CC(O)C3)nc(N)n2)CC1 (centres undefined),inactive,
C[S+](=O)([O-])N1Cc2ccccc2CC2(CCN(Cc3cccnc3)C2)C1 (centres undefined),inactive,
CCOc1cccc(CNC(=O)CCC2CCCN(S(=O)(=O)c3ccc(C)cc3)C2)c1 (centres undefined),"inconclusive: 50.1 µM [inhibitor, partial curve, poor fit]",
CN(C)c1ccc(-c2noc([C@@H]3CCCN3Cc3cnc4ccccc4c3)n2)cn1,"inconclusive: 11.2 µM [inhibitor, full curve]",
O=C(Nc1ccc(F)cc1)C1CC(=O)N(c2n[nH]c3cccc(F)c23)C1 (centres undefined),,inconclusive: -32.6% [inhibitor]
COc1ccc(-c2noc([C@@H]3C[C@H](NCc4ccc(F)cc4)CN3C)n2)cc1,"inconclusive: 89.1 µM [inhibitor, partial curve]",
COc1ccc(CCNC(=O)C2CCCN(c3nccc(Nc4ccccc4F)n3)C2)cc1 (centres undefined),"inconclusive: 10 µM [inhibitor, full curve, poor fit]",
CNC(=O)[C@H]1C[C@H](Oc2ccccc2)CN1Cc1c[nH]c2ccc(OC)cc12,inactive,
CC1(NC(=O)C2CC2)CN(Cc2nc(-c3ccc(Oc4ccccc4)cc3)cs2)C1,"inconclusive: 50.1 µM [inhibitor, partial curve, poor fit]",
CCCCCC(=O)N1CCC2(CC1)[C@H](C(=O)OCC)[C@@H](O)C(=O)N2Cc1ccccc1,"inconclusive: 44.7 µM [inhibitor, partial curve, poor fit]",
C[C@]1(CO)C2CC[C@@H](O)[C@@H](CC(=O)N3CCC[C@H]3CO)[C@]2(C)CC[C@H]1OC(=O)Nc1ccc(Cl)c(Cl)c1 (some centres undefined),"inconclusive: 50.1 µM [inhibitor, partial curve, poor fit]",
O=C(NCc1ccc(F)cc1)c1cc(-c2cc(Cl)cc(Cl)c2)c2nncn2n1,inactive,
